Whole data set: some 33,000 sequences, median “E-score (-0.5 to 0.5)” near -0.043, cut for the highest 2% near 0.37. Some of the results follow.
molecular target: T1, Upc2 (UniProt Q12151); experiment: PBM E-score (8-mer binding enrichment) (E-score (-0.5 to 0.5)); higher = stronger / more preferred TF binding; most listed sequences are background and not binding sites; details: protein concentration: 200 nM; construct: GST-full length
T1 sequence: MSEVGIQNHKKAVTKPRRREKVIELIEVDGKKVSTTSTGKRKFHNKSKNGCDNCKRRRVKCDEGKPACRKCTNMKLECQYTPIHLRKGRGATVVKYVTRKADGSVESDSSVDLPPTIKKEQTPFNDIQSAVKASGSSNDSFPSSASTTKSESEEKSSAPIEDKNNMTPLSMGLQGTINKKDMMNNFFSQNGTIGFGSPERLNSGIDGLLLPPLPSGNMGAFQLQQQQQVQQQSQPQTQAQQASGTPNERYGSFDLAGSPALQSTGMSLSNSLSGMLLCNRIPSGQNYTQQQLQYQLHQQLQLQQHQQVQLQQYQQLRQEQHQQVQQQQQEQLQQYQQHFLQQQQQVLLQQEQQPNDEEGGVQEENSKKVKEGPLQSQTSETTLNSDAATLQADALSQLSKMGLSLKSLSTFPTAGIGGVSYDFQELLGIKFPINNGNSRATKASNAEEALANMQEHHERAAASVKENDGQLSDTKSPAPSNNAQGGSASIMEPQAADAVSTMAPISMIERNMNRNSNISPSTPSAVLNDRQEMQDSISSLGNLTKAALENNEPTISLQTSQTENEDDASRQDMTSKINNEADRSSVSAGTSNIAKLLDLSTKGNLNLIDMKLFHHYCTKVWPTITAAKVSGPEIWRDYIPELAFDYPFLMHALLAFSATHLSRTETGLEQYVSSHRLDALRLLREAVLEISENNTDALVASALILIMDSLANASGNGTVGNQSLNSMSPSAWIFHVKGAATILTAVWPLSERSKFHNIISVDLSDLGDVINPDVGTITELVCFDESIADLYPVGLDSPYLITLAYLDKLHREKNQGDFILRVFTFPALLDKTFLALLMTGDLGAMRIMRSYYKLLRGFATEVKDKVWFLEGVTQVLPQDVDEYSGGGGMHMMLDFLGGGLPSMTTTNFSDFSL
Summary of the method: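 Universal all-10-mer Agilent arrays, double-stranded by primer extension on fresh or once-stripped slides, were probed with about 100-200 nM GST-tagged yeast transcription factors made by PURExpress. Fluorescent anti-GST detected bound protein, and masliner normalised the scans. E-scores from the Universal PBM Analysis Suite were given to each ungapped eight-base word pooled with its reverse complement.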

Sequence	PBM E-score
CATACTCC	-0.182
AGTTGCTG	0.0425
AAGATACG	0.349
CGCATAAG	0.226
GCTGAAAC	0.0487
AATGCTGG	0.022
AGACTCGC	-0.0548
ACGGGGCA	0.0932
CGTGCTAC	-0.175
ACCTGGTC	-0.0694
CGTTGTTC	0.0493
CAAGTAAA	0.0181
CTGGTAGA	-0.121
CCACACGC	-0.059
GACCACGC	-0.0484
TCTCGCCA	0.024
ATCTGCCG	-0.0104
CGGGGTAA	-0.0185
CATTCGGA	0.153
CCATCCAA	-0.229
ACAATTTC	0.0419
GACCAGTA	-0.0242

Sequence	PBM E-score
CCAACTTC	0.0439
ACCCCCAG	-0.101
GTGAATTA	-0.165
GCTTCCGA	0.0593
CTCTGTAA	-0.0575
ATATGGTG	0.0542
CGTTGAAC	0.222
GGGTGGTA	0.0636
AGCGATAA	0.0894
ACAGGCCT	-0.206
CGTAACAC	0.24
CTTAGAGC	-0.0646
AGCTTCCA	-0.211
ACAGAGGT	-0.0934
AGAGGCAA	-0.211
GAGCAATC	-0.00409
GGAGGCCA	-0.322
ACCTTCTA	-0.0736
GCCCCATA	-0.0711
ACACGTAC	0.268
CAACGGTC	0.0501
AGAGGCGA	-0.213

Sequence	PBM E-score
CACCTACC	-0.148
CAGAAAAA	-0.0281
CGGGTTTA	0.16
AGCGGGGA	-0.225
ACACCGCT	0.0197
CATTCTAG	-0.28
ATCTCGAG	-0.101
GGGCTAAA	-0.0166
GCTAGGAA	-0.253
CCTACGCG	0.0173
AGTGCTCG	0.181
CCAACAGA	-0.111
CACAGAGG	-0.344
GGACCTAC	0.0699
ACACTTCG	0.103
CCTGGCCG	-0.147
AAATTTCT	0.0462
CCTATGCA	-0.216
CTCGTGAC	0.0385
ACGACCAA	0.366
AATTTAAA	0.13
GCTTGGAA	0.159

Sequence	PBM E-score
AGGTAATG	-0.127
GCAATTGA	-0.0519
TCATCCAA	-0.0513
AATGAACT	0.0533
CTGTTAGC	-0.142
GCGGGAGA	-0.21
CGTGTTTA	0.166
CGCGGACA	-0.098
CGCTTTAC	0.292
AACGGGGA	0.299
GCCAAGGA	-0.287
GCCTGCGA	-0.302
CAATCACC	-0.00615
AAGATGAC	-0.181
AGATTGAG	-0.0883
GGAAGTGA	-0.0336
CGCGCGCC	0.125
CAAAACGC	-0.079
ACTAAATC	0.0151
CAGTATAG	0.203
AAAGATGA	-0.0247
CACACGGC	-0.0308

Sequence	PBM E-score
ATTAAGGG	-0.233
GACACCGC	0.0482
CCGCAGAC	-0.0903
CGTTTTTC	0.115
ATAAGTAC	0.142
ACAGAGGC	0.0372
CCAAGGCG	-0.0754
AATTAGGA	-0.113
AATTTTTA	0.0508
AACACCCG	0.0683
ACACCGCA	-0.0497
CCCGCAAG	-0.239
TGAGTGCA	-0.0443
AAGAAGGA	-0.253
GAGTCAAC	-0.054
AAGGATAT	-0.13
CTTCGACA	-0.137
AGAACGAT	0.342
ACTAGTAG	-0.00342
ATGCGCAC	-0.0492
CACTCTTA	-0.00132
